From publication PMC4336329 (PLoS ONE, 2015)
Out of some 310,000 compounds screened, about 14,000 (4.5%) showed an effect of 50% or more. Effects have a minus sign here. This is one part of the list.

The compounds below were run against human ether-à-go-go-related gene (hERG) potassium channel (human, UniProt Q12809) (assay: primary screen, population patch clamp on CHO cells stably expressing hERG).
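Further: peak tail current of the secondary pulse compared with the same well before compound.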

Sequence of human ether-à-go-go-related gene (hERG) potassium channel (Q12809 whole entry, looked up): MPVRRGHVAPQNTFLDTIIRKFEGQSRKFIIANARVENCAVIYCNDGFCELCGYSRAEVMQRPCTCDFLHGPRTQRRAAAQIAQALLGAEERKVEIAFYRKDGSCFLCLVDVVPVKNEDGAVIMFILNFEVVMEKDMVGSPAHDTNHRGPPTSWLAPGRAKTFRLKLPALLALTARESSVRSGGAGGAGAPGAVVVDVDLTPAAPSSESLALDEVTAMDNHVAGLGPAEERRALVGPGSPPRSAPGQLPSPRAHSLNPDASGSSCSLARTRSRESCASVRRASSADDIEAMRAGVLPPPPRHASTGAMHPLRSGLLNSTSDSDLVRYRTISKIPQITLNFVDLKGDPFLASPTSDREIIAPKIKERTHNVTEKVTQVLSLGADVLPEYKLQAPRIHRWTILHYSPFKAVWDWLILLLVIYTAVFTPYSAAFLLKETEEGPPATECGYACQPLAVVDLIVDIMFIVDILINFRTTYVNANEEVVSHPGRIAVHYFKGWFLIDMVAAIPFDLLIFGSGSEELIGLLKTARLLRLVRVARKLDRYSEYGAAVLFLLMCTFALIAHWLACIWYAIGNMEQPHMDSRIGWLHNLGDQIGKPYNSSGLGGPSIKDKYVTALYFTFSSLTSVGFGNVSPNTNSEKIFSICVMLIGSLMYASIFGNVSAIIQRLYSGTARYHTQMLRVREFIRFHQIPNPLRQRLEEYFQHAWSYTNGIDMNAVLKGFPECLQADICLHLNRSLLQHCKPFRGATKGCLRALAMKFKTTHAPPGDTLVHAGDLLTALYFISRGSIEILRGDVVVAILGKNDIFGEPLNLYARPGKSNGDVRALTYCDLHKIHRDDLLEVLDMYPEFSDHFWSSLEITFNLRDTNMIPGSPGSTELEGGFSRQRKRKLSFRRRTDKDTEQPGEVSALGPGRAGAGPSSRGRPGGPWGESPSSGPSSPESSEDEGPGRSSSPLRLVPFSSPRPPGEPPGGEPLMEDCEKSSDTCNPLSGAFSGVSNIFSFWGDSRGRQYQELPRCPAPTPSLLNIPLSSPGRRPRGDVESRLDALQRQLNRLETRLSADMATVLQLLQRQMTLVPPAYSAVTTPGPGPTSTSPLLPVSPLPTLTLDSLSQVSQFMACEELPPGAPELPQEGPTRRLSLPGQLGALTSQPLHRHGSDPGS

| Structure (SMILES) | hERG current change (%, negative = inhibition) at 10uM [%] |
| --- | --- |
| CCCC(=O)NC(C)C(c1cccs1)N1CCN(C)CC1 (stereo not shown) | 0.74 |
| COc1ccc(NC(=O)c2cc(-c3ccccc3)on2)cc1 | 15.9 |
| COCCNC(=O)c1ccccc1-c1nc(-c2ccccc2Cl)no1 | -9.09 |
| COCCn1c(=O)[nH]c2cc(C(=O)N3CCN(c4ccccc4OC)CC3)ccc2c1=O | 5.76 |
| Cc1ccccc1OCC(=O)OCC(=O)Nc1cc(S(=O)(=O)N2CCCCC2)ccc1Cl | 2.23 |
| CCc1cc2c(SCc3ccc(C(=O)OC)o3)ncnc2s1 | 16 |
| Cc1[nH]nc2c1C(c1ccccc1F)CC(=O)N2 (stereo not shown) | -6.07 |
| Cc1ccc(NC(=O)COc2ccc(-n3cnnn3)cc2)cc1C | 9.71 |
| COc1ccc(-n2nc([N+](=O)[O-])c(=NCCc3ccc(OC)c(OC)c3)n2O)cc1 | 2.49 |
| Cn1nc(C(=O)OCC(=O)Nc2ccc(Cl)cc2Cl)c2ccccc2c1=O | 4.9 |
| COc1ccc(-c2nn(-c3ccccc3)cc2/C=C/C(=O)N2CCN(c3ccccn3)CC2)cc1 | 1.28 |
| O=C(CN1C(=O)NC2(CCCC2)C1=O)OCc1cccc(Br)c1 | -13.1 |
| COc1ccc2nc(NC(=O)c3ccoc3C)sc2c1 | 14.4 |
| COC(=O)c1ccc(-c2nc(CN3CCCN(C(=O)c4ccco4)CC3)c(C)o2)cc1 | -41.4 |
| Cc1ccc2oc(-c3cccc(NC(=O)c4ccccn4)c3)nc2c1 | 17.1 |
| COc1cc(C(=O)NCCC(=O)NCCN2CCOCC2)cc(OC)c1OC | 2.31 |
| CCCn1c(CCc2ccccc2)nnc1SCC(=O)N1CCOCC1 | -0.0248 |
| OC1(c2ccc3c(c2)OCO3)CCN(Cc2ccc(F)cc2)CC1 | -51.4 |
| Cc1ccc(NC(=O)CN2C(=O)N/C(=C/c3ccccc3OCc3cccc(C(=O)O)c3)C2=O)cc1 | 22.6 |
| Cc1[nH]n(-c2ccccc2)c(=O)c1C=Nc1ccc(S(=O)(=O)Nc2nccs2)cc1 | 23.2 |
| CC(C)COc1ccc(CNC(=S)Nc2ccccc2)cc1Cl | 8.6 |
| COc1ccc(CC(=O)NCCS(=O)(=O)N2CCN(c3ccccc3)CC2)cc1OC | -9.09 |
| CN(C(=O)c1ccccc1C(=O)OCC(=O)NCc1ccccc1)C1CCCCC1 | -13.2 |
| O=S1(=O)CCN(Cc2csc(-c3cccs3)n2)CC1 | 1.07 |
| COc1ccc(/C=N/NC(=O)c2cccc(NC(=O)c3ccc(F)cc3)c2)c(C(=O)O)c1OC | 17.9 |
| COc1ccccc1OCC(=O)N/N=C/c1cccc2cccnc12 | -6.65 |
| O=C(CN1C(=O)CC(c2ccco2)Sc2ccccc21)NCC1CCCO1 (stereo not shown) | -7.29 |
| O=C(NCc1ccccc1)[C@@H]1C[C@H]1[C@@H](NP(=O)(c1ccccc1)c1ccccc1)c1ccccc1 | 11 |

| Structure (SMILES) | hERG current change (%, negative = inhibition) at 10uM [%] |
| --- | --- |
| O=C(CN1C(=O)c2cccc3cccc1c23)N1CCN(c2ccccc2)CC1 | -1.09 |
| CC(C)N(Cc1ccccc1)C(=S)NC1CCCCC1 | -6.03 |
| CCOC(=O)Cn1c(=O)oc2cc(S(=O)(=O)N3CCN(c4ccccn4)CC3)ccc21 | 16.7 |
| Cc1cnc(NC(=O)c2ccco2)s1 | 13.9 |
| CN1C(=O)CC(N2CCN(C(=O)CN3CCCC3)CC2)C1=O (stereo not shown) | -2.63 |
| O=C(NCCc1nc2ccccc2[nH]1)/C(=C/c1ccc2c(c1)OCO2)NC(=O)c1ccc(Cl)cc1Cl | -76.3 |
| CC(=O)c1c(C)[nH]c(C(=O)Nc2ccc3c(c2)OCCO3)c1C | 20.2 |
| Cc1ccc2c(N)c(C(=O)c3ccccc3)sc2n1 | -0.442 |
| C/C(=N\NC(=O)c1ccc(Br)cc1)c1cccc(NC(=O)c2cccnc2)c1 | -24.4 |
| CCC1(C)Cc2ccccc2-c2nc(NCCO)n(-c3ccc(C)cc3)c(=O)c21 (stereo not shown) | -25.1 |
| Cc1ccc(CN2CCC(n3nccc3NC(=O)CCCc3ccccc3)CC2)o1 | -20.5 |
| Cl.N=c1sccn1CC(=O)Nc1ccc2c(c1)CCC2 | -14.1 |
| CCOc1cc(/C=N/NC(=O)CCn2nnc3ccccc32)ccc1O | -2.28 |
| COc1ccc(/C=C/C(=O)OCC(=O)NC2CCS(=O)(=O)C2)cc1 (stereo not shown) | -12.9 |
| O=C(COc1ccccc1Cl)Nc1ccccc1C(=O)N1CCCCC1 | -20.1 |
| Cc1ccc(C(=O)NCC(=O)NCC(c2cccs2)N2CCOCC2)cc1 (stereo not shown) | 9.82 |
| O=C(NCCc1ccccc1)C(=O)NCC1OCCCN1S(=O)(=O)c1cccs1 (stereo not shown) | -2.83 |
| O=C(NNS(=O)(=O)c1ccc(F)cc1)c1cnccn1 | 13.3 |
| COC(=O)c1ccc(CN2CCc3ccc(NC(=O)c4ccncc4)cc3C2)cc1 | -15.1 |
| Cc1cccc(N2C(=O)C(O)=C(C(=O)c3cccs3)C2c2ccc(F)cc2)n1 (stereo not shown) | 14.9 |
| Cc1nn(Cc2c(F)cccc2Cl)c(C)c1NC(=O)C1CC1 | 14.9 |
| CC(=O)Nc1ccc2c(COC(=O)CC3Sc4ccccc4NC3=O)cc(=O)oc2c1 (stereo not shown) | -9.75 |
| CC(=O)N(C)Cc1ccc(C(=O)CCl)cc1 | 11.6 |
| CCOC(=O)CNc1c(-c2ccc(O)cc2)nc2ccc(Cl)cn12.Cl | -39.7 |
| Cc1n[nH]c(C)c1Sc1ccccc1N | 7.09 |
| Cn1nc(C(F)(F)F)c(-c2ccccc2)c1NC(=O)CSCC(=O)O | 12.2 |
| CCOC(=O)C1(CCc2ccccc2)CCN(C(=O)C2CCOCC2)CC1 | -53.1 |
